Article PMC12689914 (2025)

Target: Peptide-3
Assay: MST

B1: Neuropilin-1 (protein)
chain: not shown
Kd: 81 nM
